Measurements taken from PubChem BioAssay (NCI).
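1) Cells in 96-well plates. 2) Compound, 48 h, 5 concentrations. 3) Linear interpolation between surrounding doses. 4) Unreached endpoint = highest concentration. GI50 = concentration required for 50% inhibition of growth.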 Some entries of the source have several records that differ or are many. The list is limited to them. The source may hold further records. Values given together repeat one measurement across runs, samples, wells, individuals or studies. Marks in square brackets tell the records apart. Letters hold for one entry only.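 TGI is the concentration that stops growth completely.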

Tested on: MDA-MB-468 breast
Assay: NCI-60 cell line screen, 48 h

Compound: S=c1nc[nH]c2nc[nH]c12
- GI50: 3.04 µM [sample A, 1 test] and 204 nM [sample B, 1 test]
- TGI: > 750 µM [sample A, 1 test] and 970 nM [sample B, 1 test]
